Biological target: IL12 receptor on HEK reporter cells stably transfected with genes for the IL12 receptor (UniProt P42701 24-662; Q99665 24-862)
Test: cell-based or functional assay

| EC50, IL12 RGA, repeat 1 | EC50, IL12 RGA, repeat 2 | Binder |
| --- | --- | --- |
| 17.4 nM | 17.9 nM | Masked IL12 HetFc fusion protein variant 37489 (p40 K58H_E86R_K197D) (Fc fusion) chain 1: [here human IgG1 Fc with changes without letters]SADGGIWELKKDVYVVELDWYPDAPGEMVVLTCDTPEEDGITWTLDQSSEVLGSGKTLTIQVHEFGDAGQYTCHKGGEVLSHSLLLLHKKRDGIWSTDILKDQKEPKNKTFLRCEAKNYSGRFTCWWLTTISTDLTFSVKSSRGSSDPQGVTCGAATLSAERVRGDNKEYEYSVECQEDSACPAAEESLPIEVMVDAVHKLDYENYTSSFFIRDIIKPDPPKNLQLKPLKNSRQVEVSWEYPDTWSTPHSYFSLTFCVQVQGKSKREKKDRVFTDKTSATVICRKNASISVRAQDRYYSSSWSEWASVPCSGGGGSGGGGSGGGGSNLPVATPDPGMFPCLHHSQNLLRAVSNMLQKARQTLEFYPCTSEEIDHEDITKDKTSTVEACLPLELTKNESCLNSRETSFITNGSCLASRKTSFMMALCLSSIYEDLKMYQVEFKTMNAKLLMDPKRQIFLDQNMLAVIDELMQALNFNSETVPQKSSLEEPDFYKTKIKLCILLHAFRIRAVTIDRVMSYLNAS chain 2: EPKSSDKTHTCPPCPAPEAAGGPSVFLFPPKPKDTLMISRTPEVTCVVVSVSHEDPEVKFNWYVDGVEVHNAKTKPREEQYNSTYRVVSVLTVLHQDWLNGKEYKCKVSNKALPAPIEKTISKAKGQPREPQVYVLPPSRDELTKNQVSLLCLVKGFYPSDIAVEWESNGQPENNYLTWPPVLDSDGSFFLYSKLTVDKSRWQQGNVFSCSVMHEALHNHYTQKSLSLSPGGGGGSGGGGSGGGSGGGSGGGGSGGGGSQVQLVESGGGVVQPGRSLRLSCAASGFTFSSYGMHWVRQAPGKGLEWVAFIRYDGSNKYYADSVKGRFTISRDNSKNTLYLQMNSLRAEDTAVYYCKTHGSHDNWGQGTMVTVSSGGSGGGSGGGSGGGSGGGSGQSVLTQPPSVSGAPGQRVTISCSGSRSNIGSNTVKWYQQLPGTAPKLLIYYNDQRPSGVPDRFSGSKSGTSASLAITGLQAEDEADYYCQSYDRYTHPALLFGTGTKVTVL |
| 12.8 nM | 12.6 nM | Masked IL12 HetFc fusion protein variant 37491 (p40 W15H_K84L) (Fc fusion) chain 1: [here human IgG1 Fc with changes without letters]SADGGIWELKKDVYVVELDHYPDAPGEMVVLTCDTPEEDGITWTLDQSSEVLGSGKTLTIQVKEFGDAGQYTCHKGGEVLSHSLLLLHLKEDGIWSTDILKDQKEPKNKTFLRCEAKNYSGRFTCWWLTTISTDLTFSVKSSRGSSDPQGVTCGAATLSAERVRGDNKEYEYSVECQEDSACPAAEESLPIEVMVDAVHKLKYENYTSSFFIRDIIKPDPPKNLQLKPLKNSRQVEVSWEYPDTWSTPHSYFSLTFCVQVQGKSKREKKDRVFTDKTSATVICRKNASISVRAQDRYYSSSWSEWASVPCSGGGGSGGGGSGGGGSNLPVATPDPGMFPCLHHSQNLLRAVSNMLQKARQTLEFYPCTSEEIDHEDITKDKTSTVEACLPLELTKNESCLNSRETSFITNGSCLASRKTSFMMALCLSSIYEDLKMYQVEFKTMNAKLLMDPKRQIFLDQNMLAVIDELMQALNFNSETVPQKSSLEEPDFYKTKIKLCILLHAFRIRAVTIDRVMSYLNAS chain 2: EPKSSDKTHTCPPCPAPEAAGGPSVFLFPPKPKDTLMISRTPEVTCVVVSVSHEDPEVKFNWYVDGVEVHNAKTKPREEQYNSTYRVVSVLTVLHQDWLNGKEYKCKVSNKALPAPIEKTISKAKGQPREPQVYVLPPSRDELTKNQVSLLCLVKGFYPSDIAVEWESNGQPENNYLTWPPVLDSDGSFFLYSKLTVDKSRWQQGNVFSCSVMHEALHNHYTQKSLSLSPGGGGGSGGGGSGGGSGGGSGGGGSGGGGSQVQLVESGGGVVQPGRSLRLSCAASGFTFSSYGMHWVRQAPGKGLEWVAFIRYDGSNKYYADSVKGRFTISRDNSKNTLYLQMNSLRAEDTAVYYCKTHGSHDNWGQGTMVTVSSGGSGGGSGGGSGGGSGGGSGQSVLTQPPSVSGAPGQRVTISCSGSRSNIGSNTVKWYQQLPGTAPKLLIYYNDQRPSGVPDRFSGSKSGTSASLAITGLQAEDEADYYCQSYDRYTHPALLFGTGTKVTVL |

The next lines start with the binder.

| Binder | EC50, IL12 RGA, repeat 1 | EC50, IL12 RGA, repeat 2 |
| --- | --- | --- |
| Masked IL12 HetFc fusion protein variant 37480 (p40 D161R) (Fc fusion) chain 1: [here human IgG1 Fc with changes without letters]SADGGIWELKKDVYVVELDWYPDAPGEMVVLTCDTPEEDGITWTLDQSSEVLGSGKTLTIQVKEFGDAGQYTCHKGGEVLSHSLLLLHKKEDGIWSTDILKDQKEPKNKTFLRCEAKNYSGRFTCWWLTTISTDLTFSVKSSRGSSDPQGVTCGAATLSAERVRGRNKEYEYSVECQEDSACPAAEESLPIEVMVDAVHKLKYENYTSSFFIRDIIKPDPPKNLQLKPLKNSRQVEVSWEYPDTWSTPHSYFSLTFCVQVQGKSKREKKDRVFTDKTSATVICRKNASISVRAQDRYYSSSWSEWASVPCSGGGGSGGGGSGGGGSNLPVATPDPGMFPCLHHSQNLLRAVSNMLQKARQTLEFYPCTSEEIDHEDITKDKTSTVEACLPLELTKNESCLNSRETSFITNGSCLASRKTSFMMALCLSSIYEDLKMYQVEFKTMNAKLLMDPKRQIFLDQNMLAVIDELMQALNFNSETVPQKSSLEEPDFYKTKIKLCILLHAFRIRAVTIDRVMSYLNAS chain 2: EPKSSDKTHTCPPCPAPEAAGGPSVFLFPPKPKDTLMISRTPEVTCVVVSVSHEDPEVKFNWYVDGVEVHNAKTKPREEQYNSTYRVVSVLTVLHQDWLNGKEYKCKVSNKALPAPIEKTISKAKGQPREPQVYVLPPSRDELTKNQVSLLCLVKGFYPSDIAVEWESNGQPENNYLTWPPVLDSDGSFFLYSKLTVDKSRWQQGNVFSCSVMHEALHNHYTQKSLSLSPGGGGGSGGGGSGGGSGGGSGGGGSGGGGSQVQLVESGGGVVQPGRSLRLSCAASGFTFSSYGMHWVRQAPGKGLEWVAFIRYDGSNKYYADSVKGRFTISRDNSKNTLYLQMNSLRAEDTAVYYCKTHGSHDNWGQGTMVTVSSGGSGGGSGGGSGGGSGGGSGQSVLTQPPSVSGAPGQRVTISCSGSRSNIGSNTVKWYQQLPGTAPKLLIYYNDQRPSGVPDRFSGSKSGTSASLAITGLQAEDEADYYCQSYDRYTHPALLFGTGTKVTVL | 13 nM | 12.9 nM |
| Masked IL12 HetFc fusion protein variant 37483 (p40 E86W) (Fc fusion) chain 1: [here human IgG1 Fc with changes without letters]SADGGIWELKKDVYVVELDWYPDAPGEMVVLTCDTPEEDGITWTLDQSSEVLGSGKTLTIQVKEFGDAGQYTCHKGGEVLSHSLLLLHKKWDGIWSTDILKDQKEPKNKTFLRCEAKNYSGRFTCWWLTTISTDLTFSVKSSRGSSDPQGVTCGAATLSAERVRGDNKEYEYSVECQEDSACPAAEESLPIEVMVDAVHKLKYENYTSSFFIRDIIKPDPPKNLQLKPLKNSRQVEVSWEYPDTWSTPHSYFSLTFCVQVQGKSKREKKDRVFTDKTSATVICRKNASISVRAQDRYYSSSWSEWASVPCSGGGGSGGGGSGGGGSNLPVATPDPGMFPCLHHSQNLLRAVSNMLQKARQTLEFYPCTSEEIDHEDITKDKTSTVEACLPLELTKNESCLNSRETSFITNGSCLASRKTSFMMALCLSSIYEDLKMYQVEFKTMNAKLLMDPKRQIFLDQNMLAVIDELMQALNFNSETVPQKSSLEEPDFYKTKIKLCILLHAFRIRAVTIDRVMSYLNAS chain 2: EPKSSDKTHTCPPCPAPEAAGGPSVFLFPPKPKDTLMISRTPEVTCVVVSVSHEDPEVKFNWYVDGVEVHNAKTKPREEQYNSTYRVVSVLTVLHQDWLNGKEYKCKVSNKALPAPIEKTISKAKGQPREPQVYVLPPSRDELTKNQVSLLCLVKGFYPSDIAVEWESNGQPENNYLTWPPVLDSDGSFFLYSKLTVDKSRWQQGNVFSCSVMHEALHNHYTQKSLSLSPGGGGGSGGGGSGGGSGGGSGGGGSGGGGSQVQLVESGGGVVQPGRSLRLSCAASGFTFSSYGMHWVRQAPGKGLEWVAFIRYDGSNKYYADSVKGRFTISRDNSKNTLYLQMNSLRAEDTAVYYCKTHGSHDNWGQGTMVTVSSGGSGGGSGGGSGGGSGGGSGQSVLTQPPSVSGAPGQRVTISCSGSRSNIGSNTVKWYQQLPGTAPKLLIYYNDQRPSGVPDRFSGSKSGTSASLAITGLQAEDEADYYCQSYDRYTHPALLFGTGTKVTVL | 0.457 nM | 0.474 nM |
| Masked IL12 HetFc fusion protein variant 37470 (p40 K84W_K197W) (Fc fusion) chain 1: [here human IgG1 Fc with changes without letters]SADGGIWELKKDVYVVELDWYPDAPGEMVVLTCDTPEEDGITWTLDQSSEVLGSGKTLTIQVKEFGDAGQYTCHKGGEVLSHSLLLLHWKEDGIWSTDILKDQKEPKNKTFLRCEAKNYSGRFTCWWLTTISTDLTFSVKSSRGSSDPQGVTCGAATLSAERVRGDNKEYEYSVECQEDSACPAAEESLPIEVMVDAVHKLWYENYTSSFFIRDIIKPDPPKNLQLKPLKNSRQVEVSWEYPDTWSTPHSYFSLTFCVQVQGKSKREKKDRVFTDKTSATVICRKNASISVRAQDRYYSSSWSEWASVPCSGGGGSGGGGSGGGGSNLPVATPDPGMFPCLHHSQNLLRAVSNMLQKARQTLEFYPCTSEEIDHEDITKDKTSTVEACLPLELTKNESCLNSRETSFITNGSCLASRKTSFMMALCLSSIYEDLKMYQVEFKTMNAKLLMDPKRQIFLDQNMLAVIDELMQALNFNSETVPQKSSLEEPDFYKTKIKLCILLHAFRIRAVTIDRVMSYLNAS chain 2: EPKSSDKTHTCPPCPAPEAAGGPSVFLFPPKPKDTLMISRTPEVTCVVVSVSHEDPEVKFNWYVDGVEVHNAKTKPREEQYNSTYRVVSVLTVLHQDWLNGKEYKCKVSNKALPAPIEKTISKAKGQPREPQVYVLPPSRDELTKNQVSLLCLVKGFYPSDIAVEWESNGQPENNYLTWPPVLDSDGSFFLYSKLTVDKSRWQQGNVFSCSVMHEALHNHYTQKSLSLSPGGGGGSGGGGSGGGSGGGSGGGGSGGGGSQVQLVESGGGVVQPGRSLRLSCAASGFTFSSYGMHWVRQAPGKGLEWVAFIRYDGSNKYYADSVKGRFTISRDNSKNTLYLQMNSLRAEDTAVYYCKTHGSHDNWGQGTMVTVSSGGSGGGSGGGSGGGSGGGSGQSVLTQPPSVSGAPGQRVTISCSGSRSNIGSNTVKWYQQLPGTAPKLLIYYNDQRPSGVPDRFSGSKSGTSASLAITGLQAEDEADYYCQSYDRYTHPALLFGTGTKVTVL | 63.2 nM | 68.6 nM |

— patent US20240228567A1 (Zymeworks, published 2024)
